# Laboratory results published in PubChem BioAssay AID886 (National Center for Advancing Translational Sciences (NCATS), 2007).
# Values joined by “and” are separate entries in the source; they are usually repeats but may differ in a detail not shown here. Equal entries are not always repeated. Screen size: about 73,000 compounds; about 2,500 (3.4%) were called active. The shares of active, inactive and inconclusive entries below differ from those in the screen. The call rests on the fitted dose curve; in most records, active means well fitted inhibition curve with a large enough effect; inconclusive means small, poorly fitted or top-dose-only effect; inactive means no such curve, though single readings can be large or run the other way. Where the call is inconclusive, the potency comes from a doubtful curve fit.
# Biological target: 3-hydroxyacyl-CoA dehydrogenase type-2 (Homo sapiens) (UniProt Q99714)
# Assay: qHTS Assay for Inhibitors of HADH2 (Hydroxyacyl-Coenzyme A Dehydrogenase, Type II); further: nearly all actives have a fitted effect of over 60% in size
# Settings: recombinant HADH2, NADH fluorescence, beta-hydroxybutyryl-CoA; activity change, negative = inhibition: at 57.1 µM (top of the series)
# Summary of the method: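 Activity measured as NADH fluorescence gain (360/450 nm), taken as the change between first and last reads of a 4-min kinetic run. Conditions: pH 9.0 Tris buffer, 20 nM E. coli-expressed His-tagged enzyme, 1 mM NAD+, 90 uM beta-hydroxybutyryl-CoA; 15-min compound preincubation.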
# On the % scale 0 is the no-effect control and ±100 the full control effect; potency means the concentration at half of the fitted maximal effect; tags describe the fitted curve by direction and shape.
# Sequence of UniProt Q99714 (Q99714 whole entry, looked up): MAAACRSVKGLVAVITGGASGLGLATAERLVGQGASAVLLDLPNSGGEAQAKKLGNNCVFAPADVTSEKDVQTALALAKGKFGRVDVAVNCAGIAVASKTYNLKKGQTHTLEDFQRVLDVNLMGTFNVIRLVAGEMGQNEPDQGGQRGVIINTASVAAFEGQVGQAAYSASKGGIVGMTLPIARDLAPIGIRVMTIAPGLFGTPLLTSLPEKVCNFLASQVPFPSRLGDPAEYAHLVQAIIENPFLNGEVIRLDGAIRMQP
# Sequence of UniProt Q99714 (Q99714 whole entry, looked up): as above
SMILES,Potency,"activity change, negative = inhibition"
CCC(C)NC(=O)C(NS(=O)(=O)c1cccc2nsnc12)c1ccccc1 (configuration not stated),"inconclusive: 39.8 µM [inhibitor, single point]",
C/C=C/Cn1c(SCc2ccccc2)nc2c1c(=O)[nH]c(=O)n2C,"inconclusive: 20 µM [inhibitor, partial curve]",
COc1cc(C(=O)NCCC(=O)NCCN2CCOCC2)cc(OC)c1OC,inactive,
O=C(CN1C(=O)c2ccccc2C1=O)N1CCN(c2ccccc2)CC1,inactive,
Cc1cc(NC(=O)CCCS(=O)(=O)c2nc(-c3cccs3)cc(C(F)(F)F)n2)no1,active: 25.1 µM,
O=C(O)c1cc(NCc2ccc3c(c2)OCO3)ccc1N1CCOCC1,"inconclusive: 31.6 µM [inhibitor, single point]",
CCOC(=O)N1CCN(CC(=O)Nc2c(C(=O)OC)[nH]c3ccc(Cl)cc23)CC1,"inconclusive: 31.6 µM [inhibitor, single point]",
c1ccc(Cn2ccnc2-c2ccco2)cc1,"inconclusive: 39.8 µM [inhibitor, single point]",
N#CC1=C2SCN(Cc3ccccc3)CN2C(=O)CC1c1ccc2c(c1)OCO2 (configuration not stated),active: 2.51 µM,
NC(=O)c1c(N)sc2c1CCCC2,"inconclusive: 3.16 µM [inhibitor, full curve]",
N#CC(C(=O)NC1CCCCC1)c1nc2ccccc2nc1N1CCCCC1 (configuration not stated),inactive,
COC(=O)c1ccc(C2C(C#N)=C(C)NC3=C2C(=O)CC(C)(C)C3)cc1 (configuration not stated),"inconclusive: 39.8 µM [inhibitor, single point]",
N#Cc1c(N)sc(=S)c2c1CCCC2,inactive,
COCc1cc(=O)n2[nH]c(-c3ccccc3)cc2n1,active: 31.6 µM,
COc1ccc(-n2c(SCC(=O)Nc3nccs3)nc3c(c2=O)SCC3)cc1,"inconclusive: 25.1 µM [inhibitor, partial curve]",
O=C(O)[C@H](CCc1ccccc1)N1C(=O)c2ccccc2C1=O,,inactive: -0.26% [at 11.4 µM]
O=C(Cn1c(=O)oc2ccccc21)N1CCCCC1,inactive,
COc1ccc(F)cc1CN1CCN(c2cc(C)nc3c4c(C)cc(C)nc4nn23)CC1,active: 31.6 µM,
COc1ccc2nc(C)cc(C(=O)O)c2c1,active: 25.1 µM,
CC(=O)Oc1ccc(N(C(C)=O)S(=O)(=O)c2cccs2)cc1,"inconclusive: 25.1 µM [inhibitor, single point]",
CCOc1nc(Nc2ccc(-c3nc4ccccc4o3)cc2)nc(N2CCOCC2)n1,active: 31.6 µM,
Cn1c2ccc(F)cc2c2ncn(CCN3CCOCC3)c(=O)c21,"inconclusive: 39.8 µM [inhibitor, single point]",
Cc1nn(-c2ccc(F)cc2)c2nc(N)c(C#N)c(-c3cccs3)c12,"inconclusive: 7.94 µM [inhibitor, partial curve]",
COc1ccc2ccccc2c1C1CC(=O)N2CN(Cc3ccco3)CSC2=C1C#N (configuration not stated),active: 1.26 µM,

SMILES,Potency,"activity change, negative = inhibition"
S=C(Nc1ccccc1)Nc1ccccc1C#Cc1ccccc1,"inconclusive: 20 µM [inhibitor, partial curve]",
CC(=O)Nc1ccc(OCC(O)CN2CCN(Cc3ccccc3)CC2)cc1 (configuration not stated),"inconclusive: 3.98 µM [inhibitor, single point]",
O=C(CSc1ccccc1C(=O)NCCCN1CCCC1=O)NCc1ccco1,"inconclusive: 25.1 µM [inhibitor, single point]",
O=C(CN(c1ccc(F)cc1)S(=O)(=O)c1ccc2c(c1)OCCO2)Nc1cccnc1,inactive,
CCOC(=O)SC1=N/C(=C\c2ccc(N(C)C)cc2)C(=O)S1,active: 3.16 µM,
COc1ccccc1-c1n[nH]c(=S)o1,"inconclusive: 25.1 µM [inhibitor, single point]",
C[C@H](NC(=O)c1ccc(Cl)c(Cl)c1)c1ccc(-c2ccccc2)cc1,,inactive: -6.25% [at 11.4 µM]
CCN(CC)S(=O)(=O)c1ccc(NC2c3ncccc3C(=O)N2Cc2ccccc2)cc1 (configuration not stated),"inconclusive: 31.6 µM [inhibitor, single point]",
NCc1ccccc1CC(=O)N[C@@H]1C(=O)N2C(C(=O)O)=C(CSc3nnnn3CC(=O)O)CS[C@@H]12,"inconclusive: 15.8 µM [inhibitor, single point]",
COc1ccc(C(=O)n2nc(-c3ccc(C)cc3)nc2N)cc1OC,active: 31.6 µM,
Cn1cc(SCC(=O)NCc2ccc3c(c2)OCO3)c2ccccc21,"inconclusive: 25.1 µM [inhibitor, single point]",
CCN(CC)CCCNc1oc(-c2cccc(Cl)c2)nc1C#N,active: 25.1 µM,
Cc1cc(Br)c(S(=O)(=O)n2nnc3ccccc32)cc1C,"inconclusive: 0.251 µM [inhibitor, full curve]",
CC(C)C(C)C,"inconclusive: 31.6 µM [inhibitor, single point]",
COc1ccc(-n2c(Cc3cccn3C)nnc2SCC(=O)Nc2ccc(C(C)=O)cc2)cc1,inactive,
COc1ccc(N2CCC(CNC(=O)Nc3ccc(OC)cc3OC)C2)cc1 (configuration not stated),"inconclusive: 25.1 µM [inhibitor, single point]",
CC1=C(C(=O)O)N2C(=O)[C@@H](NC(=O)[C@@H](N)c3ccccc3)[C@@H]2SC1,"inconclusive: 3.16 µM [inhibitor, full curve] and inconclusive: 12.6 µM [inhibitor, partial curve]",
N#CC1=C(N)SC(N)=C(C#N)C1c1ccc(C(F)(F)F)cc1,active: 31.6 µM,
CC(=O)Oc1ccccc1N1C(=O)c2ccc(C(=O)O)cc2C1=O,"inconclusive: 3.98 µM [inhibitor, single point]",
N#Cc1c(N2CCN(C(=O)c3ccco3)CC2)nc(-c2ccccc2)c2c1CCCC2,active: 31.6 µM,
C=CCSc1nnc(CSc2nc3sc4c(c3c(=O)[nH]2)CCCC4)n1-c1ccccc1,"inconclusive: 39.8 µM [inhibitor, single point]",
Cc1ccccc1-c1coc2cc(O)ccc2c1=O,active: 20 µM,
Cn1nnnc1Sc1ncnc2scc(-c3ccccc3)c12,"inconclusive: 31.6 µM [inhibitor, single point]",
